Experimental data published in paper PMC12847778.
These are yes or no findings as the source states them, for the method shown. In cells and extracts the contact can be indirect. Some binding calls cover weakened binding; strength is not graded here. For part of these data: Where a sequence is shown, tags or fusion partners need not be part of it.

Amino acid sequences for entries named in this document (tags omitted).
UniProt P06730: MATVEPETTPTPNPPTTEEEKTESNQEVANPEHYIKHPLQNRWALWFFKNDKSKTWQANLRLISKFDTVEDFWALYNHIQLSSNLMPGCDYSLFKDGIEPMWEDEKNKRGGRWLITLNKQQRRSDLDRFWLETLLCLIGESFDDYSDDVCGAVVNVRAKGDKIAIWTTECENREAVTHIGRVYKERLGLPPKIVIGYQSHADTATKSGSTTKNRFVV

Legend:
[1] = biological target: Keratin 14 (KRT14), endogenous (human (endogenous in 5637-CR/T24-CR)) (UniProt P02533); assay: co-IP; reciprocal Co-IP of endogenous proteins (anti-KRT14, anti-eIF4H) from lysate of resistant BLCA cells; IP Lysis Buffer, overnight 4 °C, Protein A/G magnetic beads
[2] = biological target: Flag-KRT14-ΔHead (human) (UniProt P02533); assay: co-IP; Co-IP of Flag-KRT14-ΔHead with endogenous eIF4H; cells not named
[3] = biological target: Flag-KRT14-FL (full-length human KRT14 with C-terminal 3×Flag) (human) (UniProt P02533); assay: co-IP; reciprocal Co-IP of co-expressed Flag-KRT14 and HA-eIF4H (anti-Flag M2, anti-HA); cells not given
[4] = biological target: Flag-KRT14-Rod (human) (UniProt P02533); assay: co-IP; Co-IP of HA-eIF4H with Flag-KRT14-FL, -Head, -Rod, -Tail in resistant BLCA cells
[5] = biological target: T1, Flag-KRT14-Tail (human) (UniProt P02533); assay: as above
T1 sequence: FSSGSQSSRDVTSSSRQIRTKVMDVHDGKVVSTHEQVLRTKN

[6] = biological target: Flag-KRT14-FL (full-length human KRT14 with C-terminal 3×Flag) (human) (UniProt P02533); assay: as above
[7] = biological target: Flag-KRT14-Head (human) (UniProt P02533); assay: as above
[8] = biological target: GST-KRT14-Rod (human) (UniProt P02533); assay: pull-down; bead-bound GST proteins (Glutathione Sepharose 4B) incubated with 500 µg lysate of HEK293T cells overexpressing HA-eIF4H; 50 mM Tris-HCl pH 7.4, 150 mM NaCl, 1 mM EDTA, 0.5% NP-40, overnight 4 °C; anti-HA blot; only the target purified
[9] = biological target: GST-KRT14-FL (human) (UniProt P02533); assay: as above
[10] = biological target: GST-KRT14-Head (human) (UniProt P02533); assay: as above
[11] = biological target: T2, GST-KRT14-Tail (human) (UniProt P02533); assay: as above
T2 sequence: T1 sequence

[12] = biological target: Eukaryotic translation initiation factor 4H (eIF4H), endogenous (human (endogenous in 5637-CR/T24-CR)) (UniProt Q15056); assay: co-IP; eIF4H-IP from resistant cells, blots for eIF4G and eIF4E; cells with control, KRT14 OE (KRT14-WT) or KRT14-MUT (ΔHead)

## Eukaryotic translation initiation factor 4H (eIF4H), endogenous (from UniProt Q15056 1-248)
[1]
  binding: binds
[2]
  binding: no binding

## HA-eIF4H (co-expressed in cells for Co-IP) (from UniProt Q15056 1-248)
[3]
  binding: binds
[4]
  binding: no binding
[5]
  binding: no binding
[6]
  binding: binds
[7]
  binding: binds

## HA-eIF4H (overexpressed in HEK293T, lysate for GST pull-down) (from UniProt Q15056 1-248)
[8]
  binding: no binding
[9]
  binding: binds
[10]
  binding: binds
[11]
  binding: no binding

## eIF4E, endogenous (from UniProt P06730 1-217)
[12]
  binding: binds
